Reference: the RNAGym collection of RNA variant scans (doi:10.1073/pnas.2313332121)
Variants at the floor of the assay are shown more often than the library holds them.

B1: TPR 5TU (parent)
chain: GGAUCUUCUCGAUCUAACAAAAAAGACAAAUCUGCCACAAAGCUUGAGAGCAUCUUCGGAUGCAGAGGCGGCAGCCUUCGGUGGCGCGAUAGCGCCAACGUUCUCAACUAUGACACGCAAAACGCGUGCUCCGUUGAAUGGAGUUUAUCAUG

Variants of: B1
Experiment: polymerase ribozyme fitness, log enrichment relative to wild type (log ratio); higher = more active; in vitro selection for triplet polymerase activity
Method in brief: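 For each subunit of a heterodimeric triplet polymerase ribozyme, a mutant library was built by PCR and transcribed, then taken through a single in vitro selection round in triplicate. Selection involved annealing to a biotinylated primer, the partner subunit and triplets, incubation frozen at −7 °C, gel excision of extended constructs, capture on streptavidin beads and RT-PCR. Genotypes were retained after Illumina sequencing of inputs and outputs only with ≥10 input reads and ≥1 read in each output. Fitness is defined as the logarithm of a genotype's enrichment relative to wild-type enrichment, using inverse-variance-weighted averages across replicates, with the logarithm taken to base 2.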

Variant	polymerase ribozyme fitness (log ratio)
U6C G42A A73G C93U G128U A147G G152U	≤ -4.2
U6A C87G A119C	≤ -4.2
C5U A17C G50A U77A C87G A91C A106U U109G	≤ -4.2
U7C C76U G84A A119U U145G	-3.32
U7G A21U G48U U53G C76U C79A C87G G100A C105U C132G G140U	≤ -4.2
U7G A23U A73G C85G	≤ -4.2
U6G C10U C76U C85U G124A A147G	≤ -4.2
U6A A40U A41C U45A G48C G68U	≤ -4.2
U7A G58U C85A C95A	≤ -4.2
U7A A73G C93U C129G	≤ -4.2
C5U C51A	-0.999
U6A C43U G50A G88U A107G G126C	≤ -4.2
U6A A23U A30U G46A A47C	≤ -4.2
U6C C54U G67C G94C U111A C129G	≤ -4.2
C5U A12U A30C G59C C125G G126U	≤ -4.2
U6G C32U G50A C51G U53A C79G U82A G84U G88A C95G C118U G136U	≤ -4.2
U6G U31A C43U A52G C87A C108G A115U A147U	≤ -4.2
C5U G11A A37G C69G C75G C93A C132U	≤ -4.2
U6G G80U G83A G84U C93A C95U C103G G117C	≤ -4.2
U6A U56A U82G C103U	-1.06
U6A G11A A30C A52G C85U C87U C95G C103U G141U U144A	≤ -4.2

Variant	polymerase ribozyme fitness (log ratio)
C5U G68C C85G C125G	≤ -4.2
U7C A21U C63A G65C C116G	≤ -4.2
U7G A40U C43G A91U	≤ -4.2
U6A A20G A66U G67U C69U	≤ -4.2
U6A U7G C14U G50C U56C C87G A89C G100C A120G C125U	≤ -4.2
C5U G84A A142U	-0.976
C5U A23G C32A C51U G84A C95A C99G U146A	≤ -4.2
C5U G48C C79A C85U C95G	≤ -4.2
U7A G48C U56A G68U C85A A98G C125U	≤ -4.2
U7C G83C C85G C103A	≤ -4.2
U7A C8G U13G U90G C95G U134A	≤ -4.2
C5G U55A C93U C118A	-3.5
U6C C36A U61G C93A C95G G117U G140C	≤ -4.2
C5U G92A	-1.32
U6A A22U A41C G67A C79G U109A G112A A119C G143U	≤ -4.2
U6G C87A	≤ -4.2
U6G A28C A29C G46A C79G C85U A107C U145A	≤ -4.2
C5U A29U C38U G67C G80C C96U U101G U139A	≤ -4.2
U6G A138U	≤ -4.2
U6C A22G A37C A40C C85U G126A	≤ -4.2
U7G A19G G59C C76U C87A G128C G133C U139A	≤ -4.2

Variant	polymerase ribozyme fitness (log ratio)
U6C A49G G59A G92A U111A	≤ -4.2
U6G A49C C51U G88A A107U A142G	≤ -4.2
U6A C27A G86C A113C	≤ -4.2
U6G A26G G81C G83A G100A U144G	≤ -4.2
U6G A17G A22G A47U G50A A60U G86C C125G A137C	≤ -4.2
C5G U82G A91U C114A A119U A121C G133C	≤ -4.2
U6A U9A U61G A89G	≤ -4.2
U6G U7G A16U U82C G84U A106U A121U	≤ -4.2
U6C A19G G58A A138G A150C	≤ -4.2
U6G U7G C79U A89G C93A G126U	≤ -4.2
U7C G25C A37C U53A U61A G83U G133U U148C	≤ -4.2
U6C C14G C96A U135G U144G	≤ -4.2
U7G A16C C54A G67A G68C G81C C96G	≤ -4.2
U7C U9A A23C C75U U77G C103A C123G	≤ -4.2
C5G U56A G58C C79G C87U	≤ -4.2
U6C C10G	-3.97
U6G A64C G92C U104G G152U	≤ -4.2
U6A G81C G94U C125U	-2.57
U6G G50C	-3.07
U6G G80C	≤ -4.2
U7C A49G G59C C79A C131U U139A U146G	≤ -4.2

Variant	polymerase ribozyme fitness (log ratio)
U6C G94A C105U U127A	≤ -4.2
U6C U9C A17G G74U G80C C95U C129A	≤ -4.2
C5U G50U C69U G92C C105U C108G	≤ -4.2
U6A C35U G65U G94U A98C C132U U151G	≤ -4.2
U6G C10U C69G C85U A97C C103G	≤ -4.2
U6G U7G C14U A52U A60U A89U U146C	≤ -4.2
C5U A21U G84A G112U G117U G124C	≤ -4.2
U7C A20U A22G G50A G58C C93A A110C U134A	≤ -4.2
U6G C96U	-0.759
U7A A49U A52G A64U A73U U77C C85A A150C	≤ -4.2
U7A C27U C76U G88A A89G C116A	≤ -4.2
C5U G46U A47C U55A G59C G74A U82A G88U C96A U144G U146G	≤ -4.2
U7A G11C U44A G50A C95U	≤ -4.2
U7G A28G G59C C79U A89G C95U U102C A106U	≤ -4.2
U6G A40U A66G U82A C96A G100U	≤ -4.2
U6A G88U C93U C95G	≤ -4.2
U6G U31C C35U U56G G74C C85A A97U A110U A122U	≤ -4.2
U6A U7C C32U C69A C79A U151G	≤ -4.2
C5U U13G A17G A30U C32G G48C G58C C87U A119C U145C	≤ -4.2
U7C G68C G94C G100U U104G G117U A120G	≤ -4.2
